This is one part of the list. Single values of this set are uncertain. Values with irradiation are relative to irradiated vehicle.
Each compound was assayed on A549-Dual (assay: ISRE reporter (Lucia luciferase) activity, viability-corrected, relative to vehicle (fold change vs vehicle); higher = more activation of STING-IRF / NF-kB immune response reporter). Conditions: 10 µM; irradiation: none.

Compound | ISRE reporter
CN1CCc2nc(C(=O)NC3CC(C(=O)N(C)C)CCC3NC(=O)C(=O)Nc3ccc(Cl)cn3)sc2C1.Cc1ccc(S(=O)(=O)O)cc1.O (centres undefined) [Edoxaban] | 0.658
O=C1C(O)=C(C2CCC(c3ccc(Cl)cc3)CC2)C(=O)c2ccccc21 (centres undefined) [Atovaquone] | 0.713
CNC1C(O)C(OC2C(NC(=O)C(O)CN)CC(N)C(OC3OC(CN)C(O)C(O)C3O)C2O)OCC1(C)O.O=S(=O)(O)O (centres undefined) [Isepamicin Sulphate] | 1.04
Cc1cccc(Nc2ccncc2S(=O)(=O)NC(=O)NC(C)C)c1 [Torsemide] | 0.857
Nc1ccc(S(=O)(=O)[N]([Na])c2cnc3ccccc3n2)cc1 [Sulfaquinoxaline sodium] | 1.34
O=C1CC(c2ccc(O)c(O)c2)Oc2cc(O)cc(O)c21 (centres undefined) [Eriodictyol] | 4.71
Cc1ncc(CSSCc2cnc(C)c(O)c2CO)c(CO)c1O [Pyrithioxin] | 0.597
CCOC(=O)C(CCc1ccccc1)NC1CCc2ccccc2N(CC(=O)O)C1=O.Cl (centres undefined) [Benazepril HCl] | 0.712
COc1ccc(Cl)cc1C(=O)NCCc1ccc(S(=O)(=O)NC(=O)NC2CCCCC2)cc1 [Glyburide (Glibenclamide)] | 0.84
C[N+](C)(C)CCOP(=O)([O-])OP(=O)([O-])OCC1OC(n2ccc(N)nc2=O)C(O)C1O.[Na+] (centres undefined) [Citicoline sodium] | 0.736
C=CC(C)(O)CC/C=C(\C)CCC=C(C)C (centres undefined) [Nerolidol] | 0.558
COc1cc(CNC(=O)CCCCCCC(C)C)ccc1O [Dihydrocapsaicin] | 0.574
COc1cc2c(cc1OC)C1Cc3ccc(OC)c(OC)c3CN1CC2 (centres undefined) [Rotundine] | 0.779
Cc1ccc(Sc2ccccc2N2CCNCC2)c(C)c1 [Vortioxetine] | 0.863
O=C(O)CCCCCCCC(O)C(O)CCCCCCO (centres undefined) [Aleuritic Acid] | 0.548
O.O.OCC1OC(OC2OC(CO)C(O)C(O)C2O)C(O)C(O)C1O [D-(+)-Trehalose dihydrate] | 0.614
O=C1NS(=O)(=O)c2ccccc21 [Saccharin] | 0.525
Clc1ccc(CCC(Cn2ccnc2)Sc2c(Cl)cccc2Cl)cc1.O=[N+]([O-])O (centres undefined) [Butoconazole nitrate] | 1.14
CCC(C)C(=O)OC1CC(O)C=C2C=CC(C)C(CCC(O)CC(O)CC(=O)O)C21 (centres undefined) [Pravastatin] | 0.746
Cc1ccc(/C=C2\C(=O)C3(C)CCC2C3(C)C)cc1 (centres undefined) [4-Methylbenzylidene camphor] | 0.855

Compound | ISRE reporter
Cl.Nc1ccc(N=Nc2ccccc2)c(N)n1 [Phenazopyridine HCl] | 0.482
COc1ccc(O)cc1 [Mequinol] | 1
Cl.Cl.N=C(NCCCCCCNC(=N)NC(=N)Nc1ccc(Cl)cc1)NC(=N)Nc1ccc(Cl)cc1 [Chlorhexidine?2HCl] | 5.13
C#CC1(O)CCC2C3CCC4=CC(=O)CCC4C3CCC21CC (centres undefined) [Norgestrel] | 0.441
CCOC(=O)C(CCc1ccccc1)NC(C)C(=O)N1C(C(=O)O)CC2CCCCC21 (centres undefined) [Trandolapril] | 0.808
C=CCCCCCCCCC(=O)[O-].C=CCCCCCCCCC(=O)[O-].[Zn+2] [Zinc Undecylenate] | 0.816
O.c1cnc2c(c1)ccc1cccnc12 [1, 10-Phenanthroline monohydrate] | 1.12
CCN1CCCC1CNC(=O)c1cc(S(N)(=O)=O)ccc1OC (centres undefined) [Levosulpiride] | 0.608
CC1OC(OC2C(Oc3cc(O)c(C(=O)CCc4ccc(O)cc4)c(O)c3)OC(CO)C(O)C2O)C(O)C(O)C1O (centres undefined) [Naringin Dihydrochalcone] | 0.668
CCOC(=O)C(CCc1ccccc1)NC(C)C(=O)N(CC(=O)O)C1Cc2ccccc2C1.Cl (centres undefined) [Delapril Hydrochloride] | 0.361
CN(C)CC(c1ccc(O)cc1)C1(O)CCCCC1 (centres undefined) [Desvenlafaxine] | 0.821
CCN1CC(CCN2CCOCC2)C(c2ccccc2)(c2ccccc2)C1=O.Cl.O (centres undefined) [Doxapram HCl] | 0.753
CC(C)COCC(CN(Cc1ccccc1)c1ccccc1)N1CCCC1.Cl.O (centres undefined) [Bepridil hydrochloride] | 0.901
O=C(NCc1c(F)cc(F)cc1F)c1cn2c(c(O)c1=O)C(=O)N1C3CCC(C3)OC1C2 (centres undefined) [Bictegravir] | 2.95
CCCOc1ccc2nc(NC(=O)OC)[nH]c2c1 [Oxibendazole] | 1.83
COC(=O)C1=C(C)NC(C)=C(C(=O)OCCN2CCN(C(c3ccccc3)c3ccccc3)CC2)C1c1cccc([N+](=O)[O-])c1 (centres undefined) [Manidipine] | 0.934
CCOC(=O)c1ccc(N)cc1.Cl [Benzocaine hydrochloride] | 0.583
COC(=O)C1=C(C)NC(C)=C(C(=O)OC2CCCN(Cc3ccccc3)C2)C1c1cccc([N+](=O)[O-])c1.Cl (centres undefined) [Benidipine HCl] | 0.882
Clc1ccc2c(c1)CCc1cccnc1C2=C1CCNCC1 [Desloratadine] | 1.12

— the supplement of paper PMC9174493
